According to PubChem BioAssay AID686979 (National Center for Advancing Translational Sciences (NCATS), 2013):
Hit rate of the full screen: of about 420,000 compounds, about 50,000 (12%) were called active. Inconclusive results, whose numbers are uncertain, are shown with a selection of clear calls. The call rests on the fitted dose curve; in most records, active means well fitted inhibition curve with a large enough effect; inconclusive means small, poorly fitted or top-dose-only effect; inactive means flat fitted curve, though single readings scatter. Potencies of inconclusive entries are left out as doubtful fits.

Assay: qHTS for Inhibitors of human tyrosyl-DNA phosphodiesterase 1 (TDP1): qHTS in cells in presence of CPT; further: nearly all actives have a fitted effect of over 55% in size
Conditions: chicken DT40 Tdp1-/-;hTDP1 cells + 20 nM CPT, ATP luminescence, 48 h; activity change, negative = growth inhibition: at 46.2 µM (top of the series)
Summary of the method: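 Chicken DT40 Tdp1-/- cells complemented with human TDP1, 400 cells/well, exposed to compounds plus 20 nM camptothecin for at least 48 h at 37 C; viability read as ATP content by CellTiter-Glo luminescence.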
On the % scale 0 is the no-effect control and ±100 the full control effect; potency means the concentration at half of the fitted maximal effect; tags describe the fitted curve by direction and shape.

Structure (SMILES)	Potency	activity change, negative = growth inhibition
CCN(CC)C(=O)[C@H]1C[C@H](CC(=O)NCc2cccc(C(F)(F)F)c2)C(=O)N2CCc3c([nH]c4cc(CCC(=O)N(C)C)ccc34)[C@]12C	inconclusive [inhibitor, single point]	–
N#Cc1c(-c2ccncc2)cc(-c2ccc(F)cc2)nc1N	inactive	–
COc1cccc(COC(=O)c2sc3nc4n(c(=O)c3c2C)CCC4)c1OC	inactive	–
CC1CCCCC1Nc1nc2ccc(Cl)cc2n2cnnc12 (stereo not given)	inconclusive [inhibitor, partial curve]	–
CC(C)(C)OC(=O)N1CCC(c2c(C(=O)NCC3CCN(C4CCCC4)C3)cnn2-c2ccccc2Cl)CC1 (stereo not given)	inconclusive [inhibitor, single point]	–
COc1cc(C(C)=O)ccc1OCC(=O)Nc1cc(S(=O)(=O)N2CCOCC2)ccc1N1CCCC1	inconclusive [inhibitor, single point]	–
COc1ccc(C(=O)CCN2CCCC(C)C2)cc1 (stereo not given)	active: 23.1 µM	–
O=C(Nc1cccc(C(F)(F)F)c1)c1cccc2c(-c3cccnc3)coc12	inconclusive [inhibitor, single point]	–
CC(C)(C)C(=O)N(Cc1ccccc1)c1ccccn1	–	inconclusive: -9.24% [inhibitor]
Cc1nc2ccccc2n1C(C)c1nc2ccccc2n1CC(=O)c1ccc(OC(F)(F)F)cc1 (stereo not given)	inconclusive [inhibitor, single point]	–
NC(=O)c1nsc(C(=O)N(Cc2cccnc2)C(C(=O)NCc2ccccc2)c2ccc(O)cc2)c1N (stereo not given)	inactive	–
COc1ccc(N2CCN(C(=O)c3cc4c(C)nc5ccccc5c4o3)CC2)cc1	active: 16.4 µM	–
Cc1noc(C)c1-c1ccc(C(=O)Nc2cccc(C(F)(F)F)c2)c2occc12	active: 16.4 µM	–
Cn1c(SCC(=O)N(C2CCCCC2)C2CCCCC2)nnc1-c1cccs1	inconclusive [inhibitor, single point]	–
CCn1c2ccc(F)cc2c2nc3ccccc3nc21	inactive	–
Cc1ccc(NC(=O)c2c(NC(=O)c3ccc(F)cc3)sc3c2CCCC3)cc1C	inconclusive [inhibitor, single point]	–
Cc1ccc(/C=N/NC(=O)CSc2nc3ccccc3o2)cc1	active: 18.4 µM	–
O=C(O)c1ccc(N/N=C/c2ccc(-c3cccc(Cl)c3)o2)cc1	inconclusive [inhibitor, single point]	–
COc1ccc(CC(=O)Nc2nc(-c3cccnc3)cs2)cc1	inconclusive [inhibitor, single point]	–
COC(=O)CCCC[C@@H]1O[C@H](CCc2ccccc2)Cc2[nH]c(=S)[nH]c(=O)c21	inactive	–
CCOC(=O)N1CCc2c(sc(NC(=O)CCS(=O)(=O)c3ccccc3)c2C(N)=O)C1	inconclusive [inhibitor, single point]	–
CCOc1ccc2nc(SCc3ccc(OC)cc3)sc2c1	inconclusive [inhibitor, single point]	–
COc1ccc(OC)c(NC(=O)Cn2c(=O)n(-c3cccc(C)c3)c(=O)c3c2c2cc(C)ccc2n3C)c1	inconclusive [inhibitor, single point]	–

Structure (SMILES)	Potency	activity change, negative = growth inhibition
O=C(Nc1cccc(S(=O)(=O)N2CCOCC2)c1)c1cn(-c2ccccc2)nc1-c1ccccc1	inconclusive [inhibitor, partial curve]	–
COc1cc(C2CC(c3c(C)cc(C)[nH]c3=O)=NN2c2ccccc2F)cc(OC)c1OC (stereo not given)	–	inconclusive: -37.1% [inhibitor]
COc1ccc(NC(=O)c2cc3c(=O)n(Cc4cccs4)ccc3nc2C)cc1	inconclusive [inhibitor, single point]	–
COc1ccc(/C=N\NC(=O)c2cc3c(ccc4ccccc43)o2)cc1O	inconclusive [inhibitor, partial curve, poor fit]	–
O=C(c1cc(-c2cccc(Cl)c2)on1)N1CCCCC1	inactive	–
CCOc1ccc(C(=O)Nc2ccc(CN3CCOCC3)cc2)cc1Br	inconclusive [inhibitor, single point]	–
NC(=O)c1cc(Cl)ccc1OCC(=O)Nc1ccc2c(c1)OCO2	inactive	–
CCOC(=O)c1c(CN2CCOCC2)oc2ccc(OC(C)=O)cc12	inactive	–
Cc1ccc(N2CCN(S(=O)(=O)N3CCCCC3)CC2)cc1Cl	inconclusive [inhibitor, single point]	–
CC1=NC(C)(C)CC2CCC(O)C12 (stereo not given)	inactive	–
CCC(c1nnc(SCC(=O)Nc2cccnc2Cl)n1-c1ccccc1)N(C)C (stereo not given)	inactive	–
C(=N\Nc1nc2ccccc2[nH]1)/c1cccc2cccnc12	active: 2.59 µM	–
Cc1cc(C)cc(C(=O)NC(CC(N)=O)c2ccc(NCC3CC3)c([N+](=O)[O-])c2)c1 (stereo not given)	inactive	–
Cn1c(=O)c([N+](=O)[O-])c(N2CCSCC2)c2ccccc21	inconclusive [inhibitor, single point]	–
C[C@H](O)[C@@H]1CN2CCc3c([nH]c4ccccc34)[C@@H]2C[C@@H]1N(C)C(=O)Nc1cccc2ccccc12	inconclusive [inhibitor, single point]	–
COc1ccc(S(=O)(=O)N2CCOC23CCN(S(=O)(=O)c2ccc(Cl)cc2)CC3)cc1	inconclusive [inhibitor, single point]	–
C=CCC1(CC=C)CC(Cc2cnccn2)N(C(=O)OC(C)(C)C)C1 (stereo not given)	inconclusive [inhibitor, single point]	–
Cc1nn(C)c(C(=O)N2CCN(C(=O)c3ccco3)CC2)c1Br	inactive	–
O=C(CCc1ccccc1)NC(=S)Nc1ccccc1Br	inconclusive [inhibitor, single point]	–
Cc1cc(C)n(C(C)Sc2ccccc2)n1 (stereo not given)	inactive	–
O=C(NCC1Cc2cc(-c3cncnc3)cc(Cl)c2O1)c1cccc(Cn2cccn2)c1 (stereo not given)	–	inactive: 3.29% [at 9.04 µM]
[O-]/[N+](=C\c1ccncc1)c1ccc(Br)cc1	active: 8.2 µM	–
